tested on: 4 ccRCC cell lines; assay: High-throughput proliferative screen, single point; settings: 10μM; proliferative screen in ccRCC cell lines

SMILES	Single Pt Act (10μM)
CNC(=O)c1ccc2c(c1)CCCN2C(=O)C1CCN(C(=O)c2ccccc2C(F)(F)F)CC1 [SetB.52]	No
O=C(NCc1cccnc1OCc1ccccc1)C1CCN(C(=O)c2ccccc2C(F)(F)F)CC1 [TC03.31]	No
O=C(c1ccccc1C(F)(F)F)N1CCC(S(=O)(=O)NCc2ccc(OCc3ccccc3)nc2)CC1 [TC03.47]	No
O=C(c1ccc(OCc2ccccc2)nn1)N1CCC2(CC1)CCN(C(=O)c1ccccc1C(F)(F)F)C2 [TC03.53]	No
O=C(c1ccccc1C(F)(F)F)N1CCC([C@@H]2CCCN2C(=O)c2ccc(OCc3ccccc3)nc2)CC1 [TC03.10]	No
CNC(=O)c1ccc(OC2CCN(C(=O)c3ccccc3C(F)(F)F)CC2)cc1 [SetB.66]	No
CNC(=O)c1cccc(OC2CCN(C(=O)c3ccccc3C(F)(F)F)CC2)c1 [SetB.73]	No
CNC(=O)c1cnc2cc(CN3CC[C@H](Oc4ccccc4Cl)C3)nn2c1 [SetA.1]	No
CNC(=O)c1ccc(S(=O)(=O)N2CC[C@H](Oc3ccccc3Cl)C2)cn1 [SetA.61]	No
CNC(=O)c1cncc(OC2CCN(C(=O)c3ccccc3C(F)(F)F)CC2)c1 [SetB.70]	No
O=C(NCc1ccc(OCc2ccccc2)nc1)[C@H]1CCN(C(=O)c2ccccc2C(F)(F)F)C1 [TC03.46]	No
O=C(c1ccccc1C(F)(F)F)N1CCC([C@@H]2CCCN2C(=O)c2ccc(OCc3ccccc3)nn2)CC1 [TC03.48]	No
CNC(=O)c1cccc(N2CCN(C(=O)c3ccccc3C(F)(F)F)CC2)n1 [SetB.34]	No
CNC(=O)c1cc(S(=O)(=O)N2CCC(Oc3ccccc3Cl)CC2)c[nH]1 [SetA.68]	Y (no rescue)
CNC(=O)c1ccc(OCC2CCN(C(=O)c3ccccc3C(F)(F)F)CC2)cc1 [SetB.69]	No
CNC(=O)c1cccc(S(=O)(=O)N2CCCN(C(=O)c3ccccc3C(F)(F)F)CC2)c1 [SetB.49]	No
CNC(=O)c1cc(NC(=O)C2CCN(C(=O)c3ccccc3C(F)(F)F)CC2)c2ccccc2n1 [SetB.61]	No
CNC(=O)COc1ccccc1C(=O)N1CCCN(C(=O)c2ccccc2C(F)(F)F)CC1 [SetB.75]	No

molecular target: SCD1; assay: not given; settings: known SCD1 inhibitor, value given in the entry name; read-out: Known IC50 (printed in entry name); cited from earlier work

SMILES	IC50 [nM]
CNC(=O)c1nccnc1NCC(=O)N1CCC(Oc2ccc(O)c(Br)c2)CC1 [Abbott_10b_phenoxyl_58nM]	58
CNC(=O)c1nccnc1NCC(=O)N1CCC(Nc2ccccc2C(F)(F)F)CC1 [Abbott_10g_phenoxyl_100nM]	100
CNC(=O)c1cccc(NC(=O)N2CCC(Oc3ccccc3Cl)CC2)c1 [A939572 37 nM]	37
CNC(=O)c1nccnc1NCC(=O)N1CCC(Oc2cccc(F)c2F)CC1 [Abbott_10e_phenoxyl_470nM]	470

same assay, conditions: known value, no reference given; read-out: Known IC50; cited from earlier work

SMILES	IC50 [nM]
Cc1nc2ccc(NCc3cccc(C(F)(F)F)c3)cc2n(CCNC(=O)CO)c1=O [CVT-12-012 36nM, reference compound]	36
CNC(=O)c1cccc(NC(=O)N2CCC(Oc3ccccc3Cl)CC2)c1 [A939572, reference compound]	37

same assay, conditions: published IC50 of known SCD1 inhibitors used as QSAR controls; unit printed only in the ligand names; ref as named in Ligand Name (Uto et al bmcl2009, Uto_EJMC2011, powell_bmcl2011, Xin_bmcl2008); read-out: Known IC50; cited from earlier work

SMILES	IC50 [nM]
Cc1nc2ccc(NCc3cccc(C(F)(F)F)c3)cc2n(CCNC(=O)CO)c1=O [CV Therapeutics CVT-12-012]	36
CNC(=O)c1cccc(NC(=O)N2CCC(Oc3ccccc3)CC2)c1 [Xin_bmcl2008_Abbott 400 nM]	400
CNC(=O)c1nccnc1NCC(=O)N1CCC(Oc2ccc(O)cc2)CC1 [Abbott 10a phenoxyl 6uM]	6000
CNC(=O)c1cccc(NC(=O)N2CCC(Oc3ccccc3Cl)CC2)c1 [A939572, reference compound]	37
O=C(NCCC1CC1)c1ccc(N2CCN(C(=O)c3cc(F)ccc3C(F)(F)F)CC2)nn1 [Xenon_LCF369 120 nM]	120
NC(=O)c1cnc(N2CCN(C(=O)c3ccccc3C(F)(F)F)CC2)s1 [MerckFrost MF-152, reference compound]	100

Reference: PMC5787466, “Accelerated bottom-up drug design platform enables the discovery of novel stearoyl-CoA desaturase 1 inhibitors for cancer therapy” (Oncotarget, 2017)
